Structures can show the parent of a compound that is named as a salt.
Biological target: isolated recombinant JAK1 kinase domain (Homo sapiens (Human), UniProt P23458)
Conditions: read-out: JAK1 Ki; isolated recombinant JAK1 kinase domain, 25 μM ATP

Compound	Ki [nM]
CN1CCC(N(C)C(=O)c2ccc(Nc3nc4c(C5=CCN(C(=O)OC6CC6)CC5)cccn4n3)cc2)CC1 [Example 2-2, cyclopropyl 4-[2-[4-[methyl-(1-methyl-4-piperidyl)carbamoyl]anilino]-[1,2,4]triazolo[1,5-a]pyridin-8-yl]-3,6-dihydro-2H-pyridine-1-carboxylate]	4.99
CN1CCC(N(C)C(=O)c2ccc(Nc3nc4c(C5=CCN(C(=O)CC(C)(C)O)CC5)cccn4n3)cc2)CC1 [Example 2-3, 4-[[8-[1-(3-hydroxy-3-methyl-butanoyl)-3,6-dihydro-2H-pyridin-4-yl]-[1,2,4]triazolo[1,5-a]pyridin-2-yl]amino]-N-methyl-N-(1-methyl-4-piperidyl)benzamide]	2.26
CN1CCC(N(C)C(=O)c2ccc(Nc3nc4c(C5=CCN(C(=O)N6CC(C#N)C6)CC5)cccn4n3)cc2)CC1 [Example 2-5, 4-[[8-[1-(3-cyanoazetidine-1-carbonyl)-3,6-dihydro-2H-pyridin-4-yl]-[1,2,4]triazolo[1,5-a]pyridin-2-yl]amino]-N-methyl-N-(1-methyl-4-piperidyl)benzamide]	2.23
CN1CCC(N(C)C(=O)c2ccc(Nc3nc4c(C5=CCN(C(=O)OCC#N)CC5)cccn4n3)cc2)CC1 [Example 2-7, cyanomethyl 4-[2-[4-[methyl-(1-methyl-4-piperidyl)carbamoyl]anilino]-[1,2,4]triazolo[1,5-a]pyridin-8-yl]-3,6-dihydro-2H-pyridine-1-carboxylate]	1.14
CN1CCC(N(C)C(=O)c2ccc(Nc3nc4c(C5=CCN(Cc6ccccc6)CC5)cccn4n3)cc2)CC1 [Example 2-8, 4-[[8-(1-benzyl-3,6-dihydro-2H-pyridin-4-yl)-[1,2,4]triazolo[1,5-a]pyridin-2-yl]amino]-N-methyl-N-(1-methyl-4-piperidyl)benzamide; hydrochloride]	42.1
CN1CCC(N(C)C(=O)c2ccc(Nc3nc4c(C5=CCN(C(=O)CCO)CC5)cccn4n3)cc2)CC1 [Example 2-9, 4-[[8-[1-(3-hydroxypropanoyl)-3,6-dihydro-2H-pyridin-4-yl]-[1,2,4]triazolo[1,5-a]pyridin-2-yl]amino]-N-methyl-N-(1-methyl-4-piperidyl)benzamide]	8.76
CN(C)CCC(=O)N1CC=C(c2cccn3nc(Nc4ccc(C(=O)N(C)C5CCN(C)CC5)cc4)nc23)CC1 [Example 2-10, 4-[[8-[1-[3-(dimethylamino)propanoyl]-3,6-dihydro-2H-pyridin-4-yl]-[1,2,4]triazolo[1,5-a]pyridin-2-yl]amino]-N-methyl-N-(1-methyl-4-piperidyl)benzamide; dihydrochloride]	53.1
CCOC(=O)N1CC=C(c2cccn3nc(Nc4ccc(C(=O)NCC(C)(C)N5CCOCC5)cc4)nc23)CC1 [Example 2-11, ethyl 4-[2-[4-[(2-methyl-2-morpholino-propyl)carbamoyl]anilino]-[1,2,4]triazolo[1,5-a]pyridin-8-yl]-3,6-dihydro-2H-pyridine-1-carboxylate]	1.94
CCOC(=O)N1CC=C(c2cccn3nc(Nc4ccc(C(=O)N5CCC(N(C)C)CC5)cc4)nc23)CC1 [Example 2-12, ethyl 4-[2-[4-[4-(dimethylamino)piperidine-1-carbonyl]anilino]-[1,2,4]triazolo[1,5-a]pyridin-8-yl]-3,6-dihydro-2H-pyridine-1-carboxylate]	2.71
CCOC(=O)N1CC=C(c2cccn3nc(Nc4ccc(C(=O)NCCC5CCNCC5)cc4)nc23)CC1 [Example 2-13, ethyl 4-[2-[4-[2-(4-piperidyl)ethylcarbamoyl]anilino]-[1,2,4]triazolo[1,5-a]pyridin-8-yl]-3,6-dihydro-2H-pyridine-1-carboxylate]	1.54
CCOC(=O)N1CC=C(c2cccn3nc(Nc4ccc(C(=O)N(C)Cc5cccnc5)cc4)nc23)CC1 [Example 2-14, ethyl 4-[2-[4-[methyl(3-pyridylmethyl)carbamoyl]anilino]-[1,2,4]triazolo[1,5-a]pyridin-8-yl]-3,6-dihydro-2H-pyridine-1-carboxylate]	2.51
CCOC(=O)N1CC=C(c2cccn3nc(Nc4ccc(C(=O)N5CCCC5c5ccncc5)cc4)nc23)CC1 (centres unmarked) [Example 2-15, ethyl 4-[2-[4-[2-(4-pyridyl)pyrrolidine-1-carbonyl]anilino]-[1,2,4]triazolo[1,5-a]pyridin-8-yl]-3,6-dihydro-2H-pyridine-1-carboxylate]	1.28
CCOC(=O)N1CC=C(c2cccn3nc(Nc4ccc(C(=O)N5CCC(Cc6ccccn6)CC5)cc4)nc23)CC1 [Example 2-16, ethyl 4-[2-[4-[4-(2-pyridylmethyl)piperidine-1-carbonyl]anilino]-[1,2,4]triazolo[1,5-a]pyridin-8-yl]-3,6-dihydro-2H-pyridine-1-carboxylate]	2.67
CCOC(=O)N1CC=C(c2cccn3nc(Nc4ccc(C(=O)N5CCN(Cc6ccccn6)CC5)cc4)nc23)CC1 [Example 2-17, ethyl 4-[2-[4-[4-(2-pyridylmethyl)piperazine-1-carbonyl]anilino]-[1,2,4]triazolo[1,5-a]pyridin-8-yl]-3,6-dihydro-2H-pyridine-1-carboxylate]	2.67
CCOC(=O)N1CC=C(c2cccn3nc(Nc4ccc(C(=O)N5CCC(N6CCOCC6)CC5)cc4)nc23)CC1 [Example 2-18, ethyl 4-[2-[4-(4-morpholinopiperidine-1-carbonyl)anilino]-[1,2,4]triazolo[1,5-a]pyridin-8-yl]-3,6-dihydro-2H-pyridine-1-carboxylate]	2.19
CCOC(=O)N1CC=C(c2cccn3nc(Nc4ccc(C(=O)N5CCN(c6cccnc6)CC5)cc4)nc23)CC1 [Example 2-19, ethyl 4-[2-[4-[4-(3-pyridyl)piperazine-1-carbonyl]anilino]-[1,2,4]triazolo[1,5-a]pyridin-8-yl]-3,6-dihydro-2H-pyridine-1-carboxylate]	1.9
CCOC(=O)N1CC=C(c2cccn3nc(Nc4ccc(C(=O)N5CCN(C)CC(CO)C5)cc4)nc23)CC1 (centres unmarked) [Example 2-20, ethyl 4-[2-[4-[6-(hydroxymethyl)-4-methyl-1,4-diazepane-1-carbonyl]anilino]-[1,2,4]triazolo[1,5-a]pyridin-8-yl]-3,6-dihydro-2H-pyridine-1-carboxylate]	1.62
CCOC(=O)N1CC=C(c2cccn3nc(Nc4ccc(C(=O)N5CCCC5C5CCCCN5C)cc4)nc23)CC1 (centres unmarked) [Example 2-21, ethyl 4-[2-[4-[2-(1-methyl-2-piperidyl)pyrrolidine-1-carbonyl]anilino]-[1,2,4]triazolo[1,5-a]pyridin-8-yl]-3,6-dihydro-2H-pyridine-1-carboxylate]	2.85
CCOC(=O)N1CC=C(c2cccn3nc(Nc4ccc(C(=O)N5CCCC5c5cc(N(C)C)cc(C)n5)cc4)nc23)CC1 (centres unmarked) [Example 2-22, ethyl 4-[2-[4-[2-[4-(dimethylamino)-6-methyl-2-pyridyl]pyrrolidine-1-carbonyl]anilino]-[1,2,4]triazolo[1,5-a]pyridin-8-yl]-3,6-dihydro-2H-pyridine-1-carboxylate]	7.6
CCOC(=O)N1CC=C(c2cccn3nc(Nc4ccc(C(=O)N5CCNCC5C)cc4)nc23)CC1 (centres unmarked) [Example 2-24, ethyl 4-[2-[4-(2-methylpiperazine-1-carbonyl)anilino]-[1,2,4]triazolo[1,5-a]pyridin-8-yl]-3,6-dihydro-2H-pyridine-1-carboxylate]	1.56

Reference: patent US9873709B2 (priority 2013, dated 2018)
